Results as given in the supplement of paper PMC3334620.
Whole data set: some 33,000 sequences, median “E-score (-0.5 to 0.5)” near -0.016, cut for the highest 2% near 0.31. The list shows a part of the results.

Biological target: Cst6 (UniProt P40535)
Assay: PBM E-score (8-mer binding enrichment) (E-score (-0.5 to 0.5)); higher = stronger / more preferred TF binding; most listed sequences are background and not binding sites
Conditions: protein concentration: 200 nM; construct: GST-DNA-binding domain
Outline: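 Each ungapped eight-base word and its reverse complement, pooled, received an E-score from the Universal PBM Analysis Suite. Underlying scans, normalised with masliner, recorded fluorescent anti-GST bound to GST-tagged yeast transcription factors. These were applied at about 100-200 nM to universal all-10-mer Agilent arrays double-stranded by primer extension.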

Row | Sequence | PBM E-score
1 | ACAAACAC | 0.213
2 | GGTCAACA | -0.0567
3 | CATTTTGC | 0.0672
4 | CATCAACC | 0.148
5 | AACCAGCG | 0.00295
6 | AGGGATAC | -0.12
7 | GACGTAGC | 0.166
8 | ACGCTACG | 0.0743
9 | CTGTCCTC | -0.198
10 | GTCAGGTA | 0.12
11 | ATAGAGCA | -0.00911
12 | CGTAAACA | 0.262
13 | GTATGTGA | 0.126
14 | CATATGTA | 0.132
15 | AGCTGACG | 0.359
16 | GGACCAAC | -0.161
17 | CGACATGA | 0.0532
18 | TAGCTTCA | -0.147
19 | CTACTTCC | 0.0887
20 | TAGTGATA | 0.088
21 | CGAGGTAC | -0.121
22 | AAATGGGC | -0.133
23 | ATATTCTA | 0.257
24 | CTTCATTA | 0.185
25 | ATTTAAGC | 0.196

Row | Sequence | PBM E-score
26 | CGAATCCA | -0.176
27 | TGTATACA | 0.131
28 | GTGCATTA | 0.131
29 | GCAGCCTA | -0.125
30 | CACATCGG | -0.138
31 | GGCACCTA | -0.116
32 | AGCATCTA | -0.052
33 | AGAGAATA | 0.0833
34 | AAACATTG | 0.0275
35 | AGTAATTC | 0.189
36 | AGTCGAGC | -0.155
37 | TCCCTTCA | -0.0635
38 | ACACCCAG | -0.153
39 | AATAAGGG | 0.0454
40 | CTATCCAA | -0.059
41 | AACATCGG | -0.122
42 | CCTTTCCA | -0.0521
43 | GCCTCTAA | -0.167
44 | CGATAACC | -0.153
45 | GGTCAGAC | -0.149
46 | ATCCATCA | 0.0668
47 | AATACTCC | -0.177
48 | CAGTGCCC | -0.0146
49 | CGTCGGGC | -0.218
50 | GAACTAAC | 0.0294

Row | Sequence | PBM E-score
51 | CTTATCCC | -0.0716
52 | ACTGAGGC | -0.102
53 | AATCTATC | -0.0282
54 | AACTGGAT | 0.0558
55 | GCACGGGA | -0.0634
56 | GACCTTTA | 0.0241
57 | CTGCCCGC | -0.169
58 | CGGTTATA | -0.00706
59 | GAAGCGTA | -0.102
60 | CTGACTCA | 0.0191
61 | CAGTACGC | -0.0344
62 | CAATGTGG | -0.0313
63 | ACTAGATA | 0.124
64 | ATAGTTTC | 0.104
65 | ATAAAGTG | 0.124
66 | CCTAGGAA | -0.0351
67 | GATGTCTA | 0.0748
68 | AATGGAAT | 0.144
69 | CCTTTACG | 0.186
70 | CTGAAGCC | -0.122
71 | CAGTCGAA | -0.161
72 | AAGTTATT | 0.204
73 | ACGCTAAA | 0.051
74 | GGCCATCA | -0.0845
75 | ACCTTCAT | -0.0967

Row | Sequence | PBM E-score
76 | GATCTGAA | -0.109
77 | GGCGAGAC | -0.0737
78 | ATTTTGTC | 0.19
79 | AGAAATAT | 0.221
80 | AATAACTA | 0.185
81 | CGTCGAGA | 0.0993
82 | CGGAGTAA | -0.0229
83 | GACGTGGC | 0.049
84 | ATTAAAAT | 0.261
85 | CTTATTCA | 0.0605
86 | TAATAAGA | 0.16
87 | CGGGACTC | -0.122
88 | ATCCCTGG | -0.179
89 | GCTTTGGA | 0.06
90 | AACATCGC | -0.186
91 | CAACTCCA | -0.0388
92 | AATTGGAT | 0.125
93 | AAACACGC | 0.107
94 | CAAGTAGG | -0.213
95 | GACCTCTA | -0.153
96 | GACGATCA | 0.0657
97 | ACGTCGCG | 0.259
98 | GTCATAAA | 0.331
99 | AGCATCGA | -0.0476
100 | AACATCTT | -0.0135

Row | Sequence | PBM E-score
101 | TGTGCGAA | -0.0655
102 | ATGCAAGA | 0.102
103 | GAAGTCTA | -0.208
104 | ACCAGGCG | -0.144
105 | AGGATAAT | 0.103
106 | GCAATGAC | 0.3
107 | CGGTAGTC | -0.304
108 | TCCCACAA | -0.0349
109 | CCATTAAG | 0.0421
110 | AAAACATT | 0.165
111 | GGGTTTTA | -0.104
112 | ACGCCCGG | -0.211
113 | CGGGGCTA | -0.118
114 | AAGTCTTG | -0.0973
115 | CTTTACTC | 0.103
116 | AAAAGCTA | 0.0299
117 | ATAAAGTA | 0.219
118 | CACCCTCA | -0.212
119 | AGTACCCA | -0.222
120 | CTGCTCCC | -0.174
121 | TCCTTAAA | 0.00906
122 | TCCGCAGA | -0.116
123 | ATCCGCGC | 0.0167
124 | AATCTCGG | -0.0737
125 | GATCAACA | 0.165

Row | Sequence | PBM E-score
126 | CGTGAGAC | -0.0301
127 | AAACCTGG | -0.0966
128 | CACGAGCA | -0.0684
129 | AAATCACG | 0.203
130 | CCCTCAGC | -0.241
131 | CCCGCGGC | 0.109
132 | GGCCTCAA | 0.033
133 | AGCCCCGG | -0.184
134 | CATACATG | 0.0541
135 | GGGCGCGA | -0.0149
136 | CTCCAAGC | -0.182
137 | AGAGGAAG | -0.191
138 | CAGCCTCC | -0.21
139 | ATGTTACG | 0.268
140 | ACTCGCAA | 0.129
141 | CTACTAGC | 0.00769
142 | ACGACCCC | -0.179
143 | GGCCCCCA | -0.382
144 | ACTCAAAC | 0.158
145 | GACTTACC | -0.19
146 | CTCAGCGC | -0.151
147 | GGGGGGTA | -0.244
148 | AACAATTG | 0.0517
149 | AACGGCAT | 0.346
150 | ACAACAGT | -0.0491

Row | Sequence | PBM E-score
151 | CAGATGAC | 0.383
152 | GGCCGCGA | -0.141
153 | AGGAATTG | 0.129
154 | CCGAGTAG | -0.111
155 | ATCCCGGG | -0.127
156 | CAGCTGAA | 0.0118
157 | TCTTCACA | 0.113
158 | CGCACAAC | -0.114
159 | ATCTCCGA | -0.0182
160 | ATGAAGCC | 0.114
161 | GTGATATA | 0.159
162 | CACCTAGC | -0.191
163 | ACTGAGTC | -0.108
164 | CTTACCAA | 0.128
165 | CTATACCC | -0.169
166 | TGTCACAA | 0.254
167 | ACTAACCT | 0.0919
168 | CGGACGAG | -0.263
169 | AATGAATA | 0.0769
170 | GTACCGCA | 0.0944
171 | CCAACACG | 0.0423
172 | GCCTGTCC | -0.331
173 | GATGCTGA | -0.085
174 | ACGGAAAG | 0.0491
175 | GACGCTAC | 0.214

Row | Sequence | PBM E-score
176 | GTCCTGGA | -0.265
177 | AAAATCGG | -0.00802
178 | ACCTGTAT | -0.099
179 | CCGCGTTC | 0.0757
180 | GACGATGA | 0.301
181 | CAGGGGGC | -0.269
182 | AGCGGTAG | -0.21
183 | GCCCGCGA | -0.173
184 | CTTCTCCA | -0.211
185 | CATATCGG | -0.0127
186 | AGTTCCCA | -0.00984
187 | AGGGTCCG | -0.308
188 | ACAGGTGA | 0.0585
189 | CAGGACGC | -0.0827
190 | TGTGTCAA | 0.123
191 | CAAATATA | 0.225
192 | CGCGATGC | -0.266
193 | GCAACGGA | -0.0853
194 | GTTTGAGA | 0.126
195 | CAGTACCG | -0.071
196 | TAAGCAAA | 0.117
197 | ATAGAAGC | 0.0756
198 | CGTAGAAC | -0.19
199 | AACTCACC | -0.0518
200 | ACAATCTC | 0.00613

Row | Sequence | PBM E-score
201 | GAAAAATC | 0.0723
202 | GACGTTTA | 0.273
203 | CTGTCTAC | 0.0335
204 | ACTGGCCG | -0.356
205 | AGGATGTA | 0.0787
206 | AGGGGCAA | -0.246
207 | AAGTGATG | 0.273
208 | AGTGTTGA | 0.197
209 | CATTGGGG | -0.18
210 | CAGGGTTC | -0.244
211 | ATCCATTC | 0.11
212 | AAAGCGAA | -0.0259
213 | AGTCTAGG | -0.346
214 | GGGACCGA | -0.258
215 | GGTATTAC | 0.21
216 | CGTACTGC | 0.0389
217 | AATACCCA | -0.141
218 | AAACAAGG | 0.0197
219 | GTAAGACA | 0.191
